Experimental data published in PubChem BioAssay AID1645887 (National Center for Advancing Translational Sciences (NCATS), 2021).
Where “and” joins values, the source holds several entries; their conditions need not be identical. Equal entries are not always repeated. About 40 (0.2%) of roughly 16,000 compounds were called active. Another 1% or so got no clear call; they are omitted. The call rests on the fitted dose curve; in most records, active means well fitted activation curve with a large enough effect; inconclusive means small, poorly fitted or top-dose-only effect, or another doubt; inactive means no such curve, though single readings can be large or run the other way. The list shows a part of the results.

target: Rap guanine nucleotide exchange factor 4 (Homo sapiens) (UniProt Q8WZA2); assay: Validation qHTS for agonist of cAMP-regulated guanine nucleotide exchange factor 4 (EPAC2); conditions: EPAC2 Rap1B BODIPY-GDP exchange, fluorescence; activation: hits give high values;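 further: exchange makes BODIPY-GDP fluorescence drop when released from Rap1B; series mostly up to about 150 µM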
In short: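 Fluorescent exchange assay: 100 nM EPAC2 with 250 nM RAP1B-BODIPY-GDP and 50 uM GDP; compound added, 5 min at room temperature, then read (ex 480/em 540 nm) every 5 min for 30 min. Normalized to 6.5 mM cAMP agonist control.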
On the % scale 0 is the no-effect control and ±100 the full control effect.

Chain of UniProt Q8WZA2 (Q8WZA2 whole entry, looked up): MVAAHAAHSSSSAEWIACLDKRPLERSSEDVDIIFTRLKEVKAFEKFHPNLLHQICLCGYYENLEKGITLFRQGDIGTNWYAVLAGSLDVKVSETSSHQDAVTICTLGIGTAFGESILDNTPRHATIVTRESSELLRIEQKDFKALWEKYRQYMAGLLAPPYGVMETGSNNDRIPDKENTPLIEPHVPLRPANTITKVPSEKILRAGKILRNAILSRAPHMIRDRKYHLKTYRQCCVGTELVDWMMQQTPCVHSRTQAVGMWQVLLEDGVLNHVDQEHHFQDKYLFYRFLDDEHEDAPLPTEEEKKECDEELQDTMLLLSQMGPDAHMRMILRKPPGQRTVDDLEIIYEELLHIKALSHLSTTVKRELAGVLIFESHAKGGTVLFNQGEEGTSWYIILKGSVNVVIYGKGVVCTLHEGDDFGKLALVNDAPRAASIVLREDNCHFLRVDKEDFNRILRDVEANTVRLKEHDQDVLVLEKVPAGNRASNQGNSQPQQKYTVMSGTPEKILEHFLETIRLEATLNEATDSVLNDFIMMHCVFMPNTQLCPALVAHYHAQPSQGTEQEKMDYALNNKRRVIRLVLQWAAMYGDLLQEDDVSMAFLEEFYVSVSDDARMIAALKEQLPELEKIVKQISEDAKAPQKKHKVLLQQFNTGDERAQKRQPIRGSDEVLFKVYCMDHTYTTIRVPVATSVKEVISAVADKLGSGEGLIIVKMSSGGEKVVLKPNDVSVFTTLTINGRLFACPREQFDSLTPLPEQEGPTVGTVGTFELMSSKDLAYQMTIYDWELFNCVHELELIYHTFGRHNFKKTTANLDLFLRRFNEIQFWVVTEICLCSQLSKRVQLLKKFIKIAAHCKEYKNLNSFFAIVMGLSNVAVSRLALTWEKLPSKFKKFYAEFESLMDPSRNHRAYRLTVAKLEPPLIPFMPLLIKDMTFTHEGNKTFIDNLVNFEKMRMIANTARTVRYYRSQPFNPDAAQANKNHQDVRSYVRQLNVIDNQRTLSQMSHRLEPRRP

activation, inactive:
CN(C)c1ncc2nc(-c3ccc(F)cc3)c(=O)n(Cc3ccc(F)cc3)c2n1 7.05%, COc1ccccc1-n1cc(CN2CCC3(CCC(CNC(=O)c4ccccc4)O3)CC2)cn1 (stereo not drawn) -12.5%, Nc1ncnc2c1nc(Cl)n2C1OC(CO)C(O)C1O (stereo not drawn) -8.09%, CN(N=O)C(=O)N[C@@H]1[C@@H](O)[C@H](O)[C@@H](CO)O[C@@H]1O -5.69%, NCCCC(=O)O -6.05% [middle of 4 runs], Cc1ccc(-c2nn(C(C)(C)C)c3ncnc(N)c23)cc1 -3.22% and -10.8%, COC(=O)c1cccc(C(=O)NCc2nc(-c3cccc(NC(=O)c4ccoc4C)c3)oc2C)c1 3.37%, C=C[C@]1(C)Cc2occ(C)c2C[C@H]1C(=C)C(=O)O -18.8%, COc1ccc(C(=O)C[N+]2(C)CCOCC2)cc1 -35.6%, CCN(CC)CCOC(=O)c1ccc(N)cc1Cl -11.9%, COCCn1c(=O)c(C)nc2cnc(Nc3ccccc3)nc21 -1.49%, C=C(C(=O)O)[C@@H]1CC[C@@]2(C)CCC[C@](C)(O)[C@@H]2C1 -21.4%, NC/C=C\C(=O)O -3.82% and 11.6% and -20.2%, COc1ccc(CN2CCCC(c3nc(-c4ccncc4)ncc3-c3ccccc3)C2)c(OC)c1OC (stereo not drawn) -32.3%, COc1cc(OC)c(OC)cc1CN1CCCC(n2cc(C(=O)N3CCCCC3)nn2)C1 (stereo not drawn) -9.46%, NC(N)=NC(=O)Cc1c(Cl)cccc1Cl -11.9% and 1.12% and -47.7%, CC1(C)O[C@H]2CC(=O)OC[C@]23[C@H]2CC[C@@]4(C)[C@H](c5ccoc5)OC(=O)[C@H]5O[C@]54[C@]2(C)C(=O)C[C@@H]13 -11.6%, COc1cccc(-c2cncnc2N(C)Cc2ccco2)c1 -1.11%, COc1ccc(CN2CCC(=O)N([C@H](CO)CC(C)C)CC2)cc1 -11.9%, Cc1noc(C)c1-c1nc(Nc2ccncc2)c2ccccc2n1 -14.4%, Cn1cc(-c2nc3cnc(N4CCNCC4)nc3n(CCc3ccccc3)c2=O)c2ccccc21 -8.84%, COc1ccccc1CNc1ncnc2ccc(-c3ccoc3)cc12 1.62%, CCCCCCC/C=C\CCCCCCCCC(=O)O -86.8%, COC(=O)N1CCC2(CCN(C(=O)Nc3ccccc3)CC2)CC1 -28.2%, COc1cccc(C(=O)NCC2Cc3cccc(-c4cccnc4)c3O2)c1 (stereo not drawn) 1.53%, O=C1CCN(Cc2ccc([N+](=O)[O-])cc2)CCN1[C@H](CO)Cc1ccccc1 -10.8%, Cn1cccc1C(=O)N1CCC2(CCN(C(=O)Nc3cccc(F)c3)CC2)CC1 -14.7%, O=C(N[C@H](CO)[C@H](O)c1ccc([N+](=O)[O-])cc1)C(Cl)Cl -19.1% and -11.7% and 0.352%, COc1cccc(Cc2nc3cccnc3n2C2CCN(C(=O)c3n[nH]c4c3CCCC4)CC2)c1 -12.4%, O=C(O)CCNC(=O)c1ccccc1 -12%, COC1/C=C/OC2(C)Oc3c(C)c(O)c4c(O)c(c(/C=N/N5CCN(C)CC5)c(O)c4c3C2=O)NC(=O)/C(C)=C/C=C/C(C)C(O)C(C)C(O)C(C)C(OC(C)=O)C1C (stereo not drawn) -13.6%, COCc1ccc(CN2Cc3cc(Cl)ccc3OC(C)C2)o1 (stereo not drawn) 6.88%, C/C(=C\c1ccco1)CN1CCOc2ccc(C(C)(O)COc3ccccc3)cc2C1 (stereo not drawn) 5.68%, CCC[C@@H]1C[C@@H](C(=O)N[C@@H]([C@H]2O[C@H](SC)[C@H](O)[C@@H](O)[C@H]2O)[C@H](C)Cl)N(C)C1 -11%, NC(C(=O)O)[C@H](O)C(=O)O (stereo partly drawn) 11%, O=C(O)C1OC(O)C(O)C(O)C1O (stereo not drawn) -9.62%, O=C(c1ccncc1)N1CCC2(CC1)CN(c1ncccn1)C2 -0.642%, CCC(=O)OCC(=O)C1(OC(=O)CC)C(C)CC2C3CCC4=CC(=O)C=CC4(C)C3(Cl)C(O)CC21C (stereo not drawn) 12.5%, COc1cccc(CNc2ncnc3sc(C(=O)N4CCOCC4)c(C)c23)c1OC -15%, COC(=O)C1=C(C)NC(C)=C(C(=O)O[C@@H]2CCCN(Cc3ccccc3)C2)[C@@H]1c1cccc([N+](=O)[O-])c1 6.04%, c1ccc2sc(-c3cc4c(c(OC5CCOC5)c3)OCCN(Cc3cccn3-c3nccs3)C4)nc2c1 (stereo not drawn) 3.79%, C=C(C)C1(O)OC(=O)C=C1OC (stereo not drawn) -13.6%, COCc1ccc(C(=O)N2CCOc3ccc(CN4CCN(c5ccc(F)cc5)CC4)cc3C2)o1 -11.5%, O=c1[nH]c(-c2ccccc2O)nc2ccccc12 2.93%, CC12CCC3c4ccc(O)cc4CCC3C1CCC2=O (stereo not drawn) -1.94%, CC(=O)N[C@@H](Cc1c[nH]c2ccccc12)C(=O)OCc1cc(C(F)(F)F)cc(C(F)(F)F)c1 -49.3% and -51.7%, Cc1ccc2c(c1)c1c3n2CCNC3CCC1 (stereo not drawn) -15.4%, CN1CCC(=O)N([C@H](CO)Cc2ccccc2)CC1 -7.95%, Cn1nnnc1SCC1=C(C(=O)O)N2C(=O)C(NC(=O)C(O)c3ccccc3)C2SC1 (stereo not drawn) -13.1%, CCN(CC)CCOC(=O)c1cc(Cl)c(N)cc1OC 5.89% and -13.8%, O=C(c1cc(C(F)(F)F)cc(C(F)(F)F)c1)N1CCC[C@@]2(CCN(c3ccccn3)C2)C1 -42.2%, NC/C=C/C(=O)O -6.43% [middle of 4 runs], CN(Cc1ccco1)c1cc(-c2cccc(NS(C)(=O)=O)c2)ncn1 -4.17%
